Out of some 43,000 compounds screened, about 830 (1.9%) were called active. The inconclusive results got no clear call from the source; some entries with a clear call stand among them for comparison. The calls were made as follows: active = clear falling dose curves in both reporters; inconclusive = both reporters move, but less clearly or upward; inactive = either reporter flat; the % is the NLuc reporter signal. Potencies of inconclusive entries are left out as doubtful fits.
Test: Cell-based coincidence reporter assay to measure PMP22 gene transcription in S16 Pmp22-F2sN cells - Primary screen
Conditions: S16 Pmp22-F2sN Schwann cells (luciferase reporters placed in the Pmp22 gene), FLuc/NLuc coincidence luminescence, 24 h; measured here: NLuc reporter readout, at 57.5 µM (top of the series); activity change, negative = inhibition: at the top concentration
Method in brief: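 Luminescent read-out of sequential FLuc and NLuc signals from a reporter embedded in the Pmp22 3' UTR of S16 Schwann cells, taken after 24 h compound exposure at 37C; compounds reducing both signals score as inhibitors of expression.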
% is scaled to controls: 0 for no effect and ±100 for the full control effect; potency is read from the fitted curve at half-maximal effect; tags tell the direction and shape of the fitted curve.

Row | SMILES | Potency | activity change, negative = inhibition
1 | Cc1cccc(Cn2c(CN3CCC(C(=O)NCCc4ccccc4)CC3)cc3ccccc32)c1 | inconclusive [phenotype inactive, single point] | 
2 | Cc1sc2ncn(CC(=O)Nc3cccc(C(F)(F)F)c3)c(=O)c2c1S(=O)(=O)N1CCC(C)CC1 | inconclusive [phenotype inactive, single point] | 
3 | O=C(/C=C/c1cn(CC(O)CN2CCCCCC2)c2ccccc12)c1ccccc1 (configuration not stated) | inconclusive [phenotype inactive, partial curve] | 
4 | COc1ccc(-c2nn(C)c3sc(C(=O)N4CCN(c5cccc(C)c5C)CC4)cc23)cc1OC |  | inactive: -15.8%
5 | O=C(NCCc1csc(-c2cccnc2)n1)c1cccc(C(F)(F)F)c1 | inconclusive [phenotype inactive, single point] | 
6 | COc1ccc(OC)c(-c2nc3c(C#N)c[nH]n3c2NC2CCCCC2)c1 | inconclusive [phenotype inactive, single point] | 
7 | Cc1ccccc1C(=O)N(Cc1ccc(N(C)C)cc1)Cc1ccco1 | inconclusive [phenotype inactive, single point] | 
8 | CN(C)c1ccc(CN(CC2CCCO2)C(=O)COc2ccccc2Cl)cc1 (configuration not stated) | inconclusive [phenotype inactive, single point] | 
9 | COc1ccc(-c2noc(CCC(=O)N(C)c3ccccc3C)n2)cc1 | inconclusive [phenotype inactive, single point] | 
10 | Cc1ccc(NC(=O)CN2C(=O)CCc3cc(S(=O)(=O)N4CCOCC4)ccc32)cc1N(C)C |  | inactive: -28.9%
11 | CCOc1ccc(-c2cnc(NCc3ccc(C(F)(F)F)cc3)n2C)cc1 | inconclusive [phenotype inactive, partial curve, poor fit] | 
12 | COc1ccc(S(=O)(=O)NCCc2sc(C)nc2C)cc1F | inconclusive [phenotype inactive, partial curve] | 
13 | CC1=C(C(=O)Nc2ccc(Cl)cc2)C(c2ccccc2C)n2ncc(C(=O)Nc3ccc(C)cc3)c2N1 (configuration not stated) |  | inactive: -15.4%
14 | CCc1ccc(CNC(=O)c2ccc3nc(SCc4ccc(F)cc4)n(C)c3c2)cc1 |  | inactive: -19.2%
15 | COc1ccccc1NC(=O)N1c2ccccc2Sc2ccccc21 | inconclusive [phenotype inactive, single point] | 
16 | CCOC(=O)c1ccc(NC(=O)Cn2nc(SC)c(S(=O)(=O)c3ccc(Cl)cc3)c2N)cc1 | inconclusive [phenotype inactive, single point] | 
17 | COc1ccc(-c2nc3cc(NC(=O)Cc4ccc(Cl)cc4)ccc3o2)cc1OC | inconclusive [phenotype inactive, single point] | 
18 | CCOc1ccc(C(=O)Nc2cc(NC(=O)c3ccco3)ccc2OC)cc1Br | inconclusive [phenotype inactive, single point] | 
19 | COc1cccc(CNC(=O)C2CCN(C(=O)N3CCOc4ccc(Cl)cc43)CC2)c1OC | inconclusive [phenotype inactive, single point] | 

Row | SMILES | Potency | activity change, negative = inhibition
20 | CC(=O)N1c2ccc(S(=O)(=O)N3CCCCCC3)cc2CC1C(=O)NCc1ccccc1C (configuration not stated) | inconclusive [phenotype inactive, partial curve, poor fit] | 
21 | COc1cc(OC)c(-c2cc(C(=O)NCc3ccc(F)cc3)c3c(-c4ccccc4)[nH]nc3n2)cc1OC | inconclusive [phenotype inactive, partial curve] | 
22 | O=C(Cn1cnc(S(=O)(=O)N2CCCC2)c1)Nc1cccc(Br)c1 | inconclusive [phenotype inactive, full curve] | 
23 | CCc1ccc2ncc(C(=O)c3ccc(C)c(C)c3)c(N3CCC(C(N)=O)CC3)c2c1 | active: 13.4 µM | 
24 | CC(C)(C)c1ccc(C(=O)NCC(c2ccco2)S(=O)(=O)c2ccc(F)cc2)cc1 (configuration not stated) | active: 15.8 µM | 
25 | Cc1ccsc1CN(C(=O)c1ccc(OCC(C)C)cc1)C1CCS(=O)(=O)C1 (configuration not stated) | inconclusive [phenotype inactive, single point] | 
26 | O=C(NCc1ccccc1)C(=O)NCC(c1cccs1)S(=O)(=O)c1ccccc1 (configuration not stated) | inconclusive [phenotype inactive, single point] | 
27 | CCN(CC)c1cc2c(cc1F)c(=O)c(S(=O)(=O)c1cccc(C)c1)cn2C | inconclusive [phenotype inactive, single point] | 
28 | CC(C)c1ccc(NS(=O)(=O)c2ccc3nc(-c4ccccc4)[nH]c3c2)cc1 | inconclusive [phenotype inactive, single point] | 
29 | Cc1nn(-c2ccccc2)c2sc(C(=O)Nc3ccc(Cl)cc3Cl)cc12 |  | inactive: 4.4%
30 | CCOc1ccccc1NC(=O)Cn1nnc(C(=O)NCc2cccs2)c1N | active: 0.401 µM | 
31 | CCc1c(-c2ccccc2)nc2ccccc2c1C(=O)NC(C)c1ccccc1 (configuration not stated) | inconclusive [phenotype inactive, single point] | 
32 | COc1ccc(F)cc1S(=O)(=O)NCC(c1ccco1)S(=O)(=O)c1cccs1 (configuration not stated) | active: 9.46 µM | 
33 | Cc1ccc(-n2ncc3c(Nc4ccc(Oc5ccccc5)cc4)ncnc32)c(C)c1 | inconclusive [phenotype inactive, single point] | 
34 | O=C(CSc1nnc(-c2ccncc2)n1-c1ccccc1)Nc1ccc(F)cc1 | inconclusive [phenotype inactive, single point] | 
35 | COc1cccc(CNC(=O)N2CCc3c(sc4c3CCCC4)C2c2ccc(F)cc2)c1 (configuration not stated) | inconclusive [phenotype inactive, single point] | 
36 | COc1cccc(N2CC(NC(=O)c3cc4ccccc4o3)CC2=O)c1 (configuration not stated) | inconclusive [phenotype inactive, single point] | 
37 | Cc1ccc(NC(=O)Nc2nnc(SCC(=O)N3CCCCC3)s2)cc1 | inconclusive [phenotype inactive, single point] | 

Reference: PubChem BioAssay AID1508649 (National Center for Advancing Translational Sciences (NCATS), 2021)
